Among the test systems are WM115; WM1716; WM1745; WM3526; WM3619; WM451Lu.
Holding throughout (test): cell count relative to DMSO control; melanoma cells; higher = more viable cells
Holding throughout (settings): library dose: low library concentration; 72 h

The structures appear in SMILES notation. The list shows a part of the results. Repeats are few or missing, and single values can be far off.

From the supplement of paper PMC4604168 (melanoma cell lines) come the findings set out here.
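Note: cell number obtained by counting DAPI-stained nuclei in high-throughput microscope images with image analysis software, screen run in 1,536-well plates.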

As for `COc1ccc(C2=N[C@@H](c3ccc(Cl)cc3)[C@@H](c3ccc(Cl)cc3)N2C(=O)N2CCNC(=O)C2)c(OC(C)C)c1` [Nutlin-3] + COc1ccc(Cl)c(Nc2nc3ccccc3nc2NS(=O)(=O)c2cccc(NC(=O)C(C)(C)N)c2)c1 [XL147] (first compound 0.1 µM, partner dose 0.8 µM), the cell count in the test with WM115 turned out to be 95.3%; with WM1716, 94.3%; in the test with WM1745, 107%; with WM3526, 119%; in the test on WM3619, 88.6%; in the test with WM451Lu, 110%.

Take `COc1ccc(C2=N[C@@H](c3ccc(Cl)cc3)[C@@H](c3ccc(Cl)cc3)N2C(=O)N2CCNC(=O)C2)c(OC(C)C)c1` [Nutlin-3] + O=C(O)c1ccc(-c2c[nH]c3ncc(-c4ccccc4)cc23)cc1C1CCCC1 [GSK650394] (first compound 0.1 µM, partner dose 0.16 µM): the cell count with WM115 came to 92.6%; in the test on WM1716, 78.8%; with WM1745, 101%; with WM3526, 79.4%; in the test on WM3619, 62%; in the test with WM451Lu, 97.4%.

As to `Cc1cc(Nc2cc(N3CCN(C)CC3)nc(/C=C/c3ccccc3)n2)n[nH]1` + Cc1cc(N2CCOCC2)cc2[nH]c(-c3c(NC[C@@H](O)c4cccc(Cl)c4)cc[nH]c3=O)nc12 [BMS536924] (first compound 0.04 µM, partner dose 0.2 µM), the cell count amounted to 102% in the test with WM115; 98.6% in the test with WM1716; 60.8% in the test on WM1745; 89.6% in the test with WM3526; 97.1% in the test with WM3619; 105% with WM451Lu.

Turning to `Cc1cc(Nc2cc(N3CCN(C)CC3)nc(/C=C/c3ccccc3)n2)n[nH]1` + CC(C)(C)c1cnc(CSc2cnc(NC(=O)C3CCNCC3)s2)o1 [SNS-032] (first compound 0.04 µM, partner dose 0.01 µM), the cell count in the test on WM115 amounted to 85.2%; with WM1716, 84.1%; in the test with WM1745 it was 89%; in the test with WM3526 it was 90.9%; in the test on WM3619, 80.5%; in the test with WM451Lu, 110%.

For `Cn1c(=O)n(-c2ccc(C(C)(C)C#N)cc2)c2c3cc(-c4cnc5ccccc5c4)ccc3ncc21` + COc1cc(Nc2ncc(F)c(Nc3ccc4c(n3)NC(=O)C(C)(C)O4)n2)cc(OC)c1OC [Tamatinib] (first compound 0.004 µM, partner dose 0.4 µM), the cell count in the test with WM115 stood at 69.1%; in the test on WM1716, 65.2%; in the test with WM1745, 70%; in the test with WM3526, 72.6%; in the test on WM3619 it was 86.2%; in the test with WM451Lu, 98.9%.

As for `Cn1c(=O)n(-c2ccc(C(C)(C)C#N)cc2)c2c3cc(-c4cnc5ccccc5c4)ccc3ncc21` + COc1cc2ncnc(Nc3ccc(Oc4ccccc4)cc3)c2cc1OC [SrcI1] (first compound 0.004 µM, partner dose 2 µM), the cell count was 88.3% with WM115; 70.7% with WM1716; 94% with WM1745; 78.8% in the test on WM3526; 74.8% in the test on WM3619; 96.8% in the test with WM451Lu.

On to `Cc1cn(-c2cc(NC(=O)c3ccc(C)c(Nc4nccc(-c5cccnc5)n4)c3)cc(C(F)(F)F)c2)cn1` [nilotinib] + COc1cc2ncnc(Nc3ccc(Oc4ccccc4)cc3)c2cc1OC [SrcI1] (first compound 0.2 µM, partner dose 2 µM), for which the cell count turned out to be 99.3% in the test with WM115; 138% with WM1716; 87.5% in the test on WM1745; 88.7% in the test on WM3526; 94.8% in the test with WM3619; 103% in the test with WM451Lu.

As for `Cc1cc(Nc2cc(N3CCN(C)CC3)nc(/C=C/c3ccccc3)n2)n[nH]1` + CN(C)S(=O)(=O)c1ccc2c(c1)/C(=C/c1cc3c([nH]1)CCCC3)C(=O)N2 [SU6656] (first compound 0.04 µM, partner dose 0.4 µM), the cell count with WM115 worked out at 64.1%; with WM1716 it was 113%; in the test with WM1745, 89.2%; in the test on WM3526 it was 86.2%; in the test on WM3619 it was 80.2%; in the test with WM451Lu, 128%.

As to `Cc1cc(Nc2cc(N3CCN(C)CC3)nc(/C=C/c3ccccc3)n2)n[nH]1` + C=CCn1c(=O)c2cnc(Nc3ccc(N4CCN(C)CC4)cc3)nc2n1-c1cccc(C(C)(C)O)n1 [MK1775] (first compound 0.04 µM, partner dose 0.02 µM), the cell count in the test with WM115 was determined as 71%; in the test on WM1716 it was 83.9%; in the test with WM1745, 72.6%; in the test with WM3526, 86%; in the test with WM3619 it was 75.8%; with WM451Lu it was 91.6%.

For the compound `CC(C)C[C@H](NC(=O)[C@H](Cc1ccccc1)NC(=O)c1cnccn1)B(O)O` [Bortezomib] + CCCCCCCCCCCC1=C(O)C(=O)C=C(O)C1=O [Embelin] (first compound 0.001 µM, partner dose 1.2 µM), the cell count in the test with WM115 was 109%; with WM1716, 134%; with WM1745, 110%; with WM3526, 102%; in the test on WM3619 it was 113%; in the test on WM451Lu, 86.9%.

For `COc1ccc(C2=N[C@@H](c3ccc(Cl)cc3)[C@@H](c3ccc(Cl)cc3)N2C(=O)N2CCNC(=O)C2)c(OC(C)C)c1` [Nutlin-3] + COCC[n+]1c2c(n(Cc3cnccn3)c1C)C(=O)c1ccccc1C2=O [YM155] (first compound 0.1 µM, partner dose 0.0004 µM), the cell count with WM115 is 95.7%; with WM1716, 93.9%; in the test on WM1745, 93.1%; with WM3526 it was 98.2%; with WM3619 it was 95.1%; in the test on WM451Lu, 78.7%.

Consider `Cc1cn(-c2cc(NC(=O)c3ccc(C)c(Nc4nccc(-c5cccnc5)n4)c3)cc(C(F)(F)F)c2)cn1` [nilotinib] + O=C(O)c1ccc(-c2c[nH]c3ncc(-c4ccccc4)cc23)cc1C1CCCC1 [GSK650394] (first compound 0.2 µM, partner dose 0.16 µM), for which the cell count in the test with WM115 came out at 106%; in the test on WM1716, 105%; with WM1745, 89.6%; with WM3526, 108%; in the test on WM3619, 114%; in the test on WM451Lu it was 120%.

On to `Cc1cn(-c2cc(NC(=O)c3ccc(C)c(Nc4nccc(-c5cccnc5)n4)c3)cc(C(F)(F)F)c2)cn1` [nilotinib] + O=C(O)c1ccc2c(c1)nc(Nc1cccc(Cl)c1)c1ccncc12 [CX4945] (first compound 0.2 µM, partner dose 0.4 µM), for which the cell count was 102% in the test on WM115; 83.2% in the test on WM1716; 86.7% in the test with WM1745; 87.7% in the test with WM3526; 99.8% with WM3619; 101% in the test with WM451Lu.

`COc1ccc(C2=N[C@@H](c3ccc(Cl)cc3)[C@@H](c3ccc(Cl)cc3)N2C(=O)N2CCNC(=O)C2)c(OC(C)C)c1` [Nutlin-3] + C[C@]1(O)C[C@@H](c2nc(-c3ccc4ccc(-c5ccccc5)nc4c3)c3c(N)nccn32)C1 [OSI906] (first compound 0.1 µM, partner dose 0.4 µM): the cell count in the test on WM115 is 103%; in the test with WM1716, 66%; in the test with WM1745 it was 67.6%; in the test with WM3526 it was 89%; in the test with WM3619, 77%; with WM451Lu it was 110%.

Turning to `CC(C)C[C@H](NC(=O)[C@H](Cc1ccccc1)NC(=O)c1cnccn1)B(O)O` [Bortezomib] + CCCS(=O)(=O)Nc1ccc(F)c(C(=O)c2c[nH]c3ncc(Cl)cc23)c1F [PLX4720] (first compound 0.001 µM, partner dose 0.08 µM), the cell count in the test with WM115 amounted to 99.6%; in the test on WM1716 it was 31.4%; with WM1745, 57.3%; with WM3526, 64.1%; in the test on WM3619, 14.3%; with WM451Lu, 86.8%.

`COc1ccc(C2=N[C@@H](c3ccc(Cl)cc3)[C@@H](c3ccc(Cl)cc3)N2C(=O)N2CCNC(=O)C2)c(OC(C)C)c1` [Nutlin-3] + CC(=O)O[C@@]12CO[C@@H]1C[C@H](O)[C@@]1(C)C(=O)[C@H](O)C3=C(C)[C@@H](OC(=O)[C@H](O)[C@@H](NC(=O)OC(C)(C)C)c4ccccc4)C[C@@](O)([C@@H](OC(=O)c4ccccc4)[C@H]21)C3(C)C [Docetaxel] (first compound 0.1 µM, partner dose 0.0001 µM): the cell count with WM115 worked out at 67.3%; with WM1716, 45%; in the test with WM1745, 66.8%; in the test on WM3526, 58.6%; in the test on WM3619 it was 50.8%; in the test on WM451Lu it was 64.7%.

`Cc1cc(Nc2cc(N3CCN(C)CC3)nc(/C=C/c3ccccc3)n2)n[nH]1` + O=C(Nc1ccccc1)c1cc([N+](=O)[O-])ccc1Cl [GW9662] (first compound 0.04 µM, partner dose 2 µM): the cell count in the test with WM115 was 99.2%; in the test on WM1716, 82.8%; with WM1745, 101%; in the test with WM3526, 91.2%; with WM3619, 96.6%; with WM451Lu it was 58.1%.

In the case of `CC(C)C[C@H](NC(=O)[C@H](Cc1ccccc1)NC(=O)c1cnccn1)B(O)O` [Bortezomib] + O=C(O)[C@@H]1[O][Sb](=[O])([O][Sb]2(=[O])[O][C@H]([C@H](O)CO)[C@H](O)[C@H](C(=O)O)[O]2)[O][C@H]([C@H](O)CO)[C@@H]1O [stibogluconate] (first compound 0.001 µM, partner dose 2 µM), the cell count with WM115 was determined as 115%; in the test on WM1716, 49.7%; in the test on WM1745, 86.6%; in the test on WM3526 it was 87.9%; in the test with WM3619 it was 39.1%; in the test on WM451Lu, 105%.

Regarding `CC(C)C[C@H](NC(=O)[C@H](Cc1ccccc1)NC(=O)c1cnccn1)B(O)O` [Bortezomib] + Oc1cc(-c2nc(-c3ccccc3)[nH]c2-c2ccncc2)ccc1Cl [L779450] (first compound 0.001 µM, partner dose 0.2 µM), the cell count is 73.8% with WM115; 35.7% with WM1716; 66% in the test on WM1745; 74.7% with WM3526; 19.5% with WM3619; 130% in the test on WM451Lu.

Turning to `CC(C)C[C@H](NC(=O)[C@H](Cc1ccccc1)NC(=O)c1cnccn1)B(O)O` [Bortezomib] + O=C(O)c1ccc(-c2c[nH]c3ncc(-c4ccccc4)cc23)cc1C1CCCC1 [GSK650394] (first compound 0.001 µM, partner dose 0.16 µM), the cell count with WM115 is 89.8%; in the test with WM1716 it was 30.4%; in the test with WM1745 it was 57.2%; in the test on WM3526, 80.8%; with WM3619, 19.2%; in the test on WM451Lu, 72.4%.

Turning to `Cc1cc(Nc2cc(N3CCN(C)CC3)nc(/C=C/c3ccccc3)n2)n[nH]1` + CC1(C)NC(=O)N(c2ccc([N+](=O)[O-])c(C(F)(F)F)c2)C1=O [nilutamide] (first compound 0.04 µM, partner dose 1 µM), the cell count in the test with WM115 was determined as 86.3%; with WM1716, 100%; with WM1745, 80%; in the test on WM3526, 91.1%; with WM3619 it was 99.7%; in the test with WM451Lu, 79.4%.

Regarding `COc1ccc(C2=N[C@@H](c3ccc(Cl)cc3)[C@@H](c3ccc(Cl)cc3)N2C(=O)N2CCNC(=O)C2)c(OC(C)C)c1` [Nutlin-3] + Nc1nc(F)nc2c1ncn2[C@@H]1O[C@H](CO)[C@@H](O)[C@@H]1O [fludarabine] (first compound 0.1 µM, partner dose 0.2 µM), the cell count was 88.8% in the test with WM115; 89.8% with WM1716; 97.9% in the test on WM1745; 30.6% in the test with WM3526; 86.5% in the test on WM3619; 63.5% in the test with WM451Lu.

`COc1ccc(C2=N[C@@H](c3ccc(Cl)cc3)[C@@H](c3ccc(Cl)cc3)N2C(=O)N2CCNC(=O)C2)c(OC(C)C)c1` [Nutlin-3] + CN(NC(=O)CC(=O)NN(C)C(=S)c1ccccc1)C(=S)c1ccccc1 [STA4783] (first compound 0.1 µM, partner dose 0.006 µM): the cell count in the test on WM115 turned out to be 81.4%; with WM1716, 68.6%; in the test with WM1745, 38.1%; with WM3526, 109%; in the test on WM3619, 42.8%; in the test on WM451Lu it was 98%.

On to `Cc1cc(Nc2cc(N3CCN(C)CC3)nc(/C=C/c3ccccc3)n2)n[nH]1` + COc1ccc(Cl)c(Nc2nc3ccccc3nc2NS(=O)(=O)c2cccc(NC(=O)C(C)(C)N)c2)c1 [XL147] (first compound 0.04 µM, partner dose 0.8 µM), for which the cell count in the test on WM115 amounted to 96.5%; in the test on WM1716 it was 100%; with WM1745, 82.5%; with WM3526, 102%; in the test on WM3619, 97.3%; in the test with WM451Lu it was 91.8%.
